T1: human PRLR on HEK293/hPRLR cells (Homo sapiens, UniProt P16471)
T1 construct: HA; expressed in transfected cells; host or cells: HEK293
T1 sequence (P16471 25-622): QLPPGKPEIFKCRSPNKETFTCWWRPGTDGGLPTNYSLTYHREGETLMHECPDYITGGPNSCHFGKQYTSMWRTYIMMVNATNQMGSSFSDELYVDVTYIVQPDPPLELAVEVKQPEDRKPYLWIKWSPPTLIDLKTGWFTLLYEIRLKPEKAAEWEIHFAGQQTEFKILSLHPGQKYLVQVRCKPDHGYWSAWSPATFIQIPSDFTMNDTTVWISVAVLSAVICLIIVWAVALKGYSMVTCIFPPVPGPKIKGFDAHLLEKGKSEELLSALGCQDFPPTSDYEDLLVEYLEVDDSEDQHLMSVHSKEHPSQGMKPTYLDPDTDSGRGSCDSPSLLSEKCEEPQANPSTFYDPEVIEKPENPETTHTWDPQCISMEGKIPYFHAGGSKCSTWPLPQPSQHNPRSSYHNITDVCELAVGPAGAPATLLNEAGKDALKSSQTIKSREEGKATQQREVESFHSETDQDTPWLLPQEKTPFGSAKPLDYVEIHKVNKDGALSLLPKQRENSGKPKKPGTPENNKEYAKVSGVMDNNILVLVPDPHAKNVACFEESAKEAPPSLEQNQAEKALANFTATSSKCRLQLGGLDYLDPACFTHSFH

T2: monkey PRLR on HEK293/mfPRLR cells (Macaca fascicularis, UniProt A0A2K5WXK1)
T2 construct: HA; expressed in transfected cells; host or cells: HEK293
T2 sequence (A0A2K5WXK1 25-619): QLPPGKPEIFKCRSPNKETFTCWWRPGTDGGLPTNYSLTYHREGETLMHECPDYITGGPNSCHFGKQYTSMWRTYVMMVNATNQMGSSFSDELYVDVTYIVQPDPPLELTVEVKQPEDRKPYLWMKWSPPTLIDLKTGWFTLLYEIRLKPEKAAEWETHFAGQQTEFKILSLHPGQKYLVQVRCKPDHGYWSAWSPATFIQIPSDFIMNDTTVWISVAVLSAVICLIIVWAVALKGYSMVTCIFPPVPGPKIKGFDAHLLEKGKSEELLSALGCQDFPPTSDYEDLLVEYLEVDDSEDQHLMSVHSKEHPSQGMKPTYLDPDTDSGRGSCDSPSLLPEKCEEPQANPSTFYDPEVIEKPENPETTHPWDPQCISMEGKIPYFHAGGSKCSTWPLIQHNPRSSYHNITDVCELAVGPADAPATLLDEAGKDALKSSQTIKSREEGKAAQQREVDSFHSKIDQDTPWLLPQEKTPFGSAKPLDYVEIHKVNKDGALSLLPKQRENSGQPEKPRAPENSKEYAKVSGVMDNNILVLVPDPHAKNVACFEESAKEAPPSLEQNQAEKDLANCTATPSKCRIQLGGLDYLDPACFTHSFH

T3: mouse PRLR on HEK293/mPRLR cells (Mus musculus, UniProt Q08501)
T3 construct: HA; expressed in transfected cells; host or cells: HEK293
T3 sequence (Q08501 20-608): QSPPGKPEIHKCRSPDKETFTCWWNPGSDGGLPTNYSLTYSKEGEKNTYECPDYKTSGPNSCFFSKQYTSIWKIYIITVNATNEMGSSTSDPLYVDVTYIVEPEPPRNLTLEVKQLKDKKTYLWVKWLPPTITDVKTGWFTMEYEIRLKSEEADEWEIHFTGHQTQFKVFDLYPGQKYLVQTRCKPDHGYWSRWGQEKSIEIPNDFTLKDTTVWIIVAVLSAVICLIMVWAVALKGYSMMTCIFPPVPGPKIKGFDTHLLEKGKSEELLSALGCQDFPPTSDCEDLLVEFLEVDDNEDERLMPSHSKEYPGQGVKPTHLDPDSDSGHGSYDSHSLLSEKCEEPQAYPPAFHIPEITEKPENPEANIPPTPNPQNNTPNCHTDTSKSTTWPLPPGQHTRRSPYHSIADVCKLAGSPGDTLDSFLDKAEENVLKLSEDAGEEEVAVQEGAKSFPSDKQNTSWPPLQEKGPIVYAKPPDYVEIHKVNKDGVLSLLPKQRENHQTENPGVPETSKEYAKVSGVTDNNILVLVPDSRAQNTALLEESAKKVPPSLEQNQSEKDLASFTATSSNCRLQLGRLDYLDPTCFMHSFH

T4: native PRLR expressing T47D cells (Homo sapiens, UniProt P16471)
T4 construct: a native PRLR expressing cell line (T47D); endogenous in cells; host or cells: T47D
T4 sequence (P16471 25-622): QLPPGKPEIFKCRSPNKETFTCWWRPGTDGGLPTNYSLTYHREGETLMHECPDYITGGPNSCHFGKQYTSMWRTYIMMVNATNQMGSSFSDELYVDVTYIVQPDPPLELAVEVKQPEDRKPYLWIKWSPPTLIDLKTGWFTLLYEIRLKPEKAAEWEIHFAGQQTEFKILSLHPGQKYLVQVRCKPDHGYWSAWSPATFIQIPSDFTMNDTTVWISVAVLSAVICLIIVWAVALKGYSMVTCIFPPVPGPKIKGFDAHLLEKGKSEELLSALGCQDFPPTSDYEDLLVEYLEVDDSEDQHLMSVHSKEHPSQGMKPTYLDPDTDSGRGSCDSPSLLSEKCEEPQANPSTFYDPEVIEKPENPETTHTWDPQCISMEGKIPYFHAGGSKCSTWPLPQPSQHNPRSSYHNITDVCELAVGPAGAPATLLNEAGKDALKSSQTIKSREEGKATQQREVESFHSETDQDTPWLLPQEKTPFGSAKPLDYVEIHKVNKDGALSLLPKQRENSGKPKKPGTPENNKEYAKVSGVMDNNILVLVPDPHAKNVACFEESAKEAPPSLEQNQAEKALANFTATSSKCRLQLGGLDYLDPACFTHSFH


Key:
[1] = test system: Macaca fascicularis PRLR (mfPRLR.mmh; SEQ ID NO:403); assay: Surface plasmon resonance (Biacore T200), antibody-capture format; format: binding; conditions: analyte mfPRLR.mmh
Method: (§1) Antibodies, expressed as human IgG1 Fc (i.e., “H1H” designations), were captured onto an anti-human Fc sensor surface (mAb-capture format), and soluble monomeric (hPRLR.mmh; SEQ ID NO:401, or Macaca fascicularis (mf) PRLR.mmh; SEQ ID NO:403) or dimeric (hPRLR.mFc; SEQ ID NO:402) PRLR protein was injected over the sensor surface. Measurements were conducted on a T200 Biacore instrument. Kinetic association (ka) and dissociation (kd) rate constants were determined by processing and fitting the data to a 1:1 binding model using Scrubber 2.0 curve fitting software.

[2] = molecular target: T5, dimeric human PRLR (hPRLR.mFc; SEQ ID NO:402) (Homo sapiens, UniProt P16471); assay: as above; format: binding; conditions: analyte hPRLR.mFc
T5 construct: dimeric (hPRLR.mFc)
Method: as §1

[3] = molecular target: T6, monomeric human PRLR (hPRLR.mmh; SEQ ID NO:401) (Homo sapiens, UniProt P16471); assay: as above; format: binding; conditions: analyte hPRLR.mmh
T6 construct: soluble monomeric (hPRLR.mmh); mmh (myc-myc-hexahistidine) (C)
Method: as §1

HEK293 parental cells = assay: FACS cell surface binding; set-up: species or system human
Method: (§2) The ability of anti-PRLR antibodies to selectively bind PRLR expressing cell lines was next determined. Human, monkey Macaca fascicularis, and mouse PRLR constructs with an HA tag were stably introduced into HEK293 cells via Lipofectamine 2000-mediated transfection methodology. Transfectants (HEK293/hPRLR, HEK293/mfPRLR and HEK293/mPRLR) were selected for at least 2 weeks in complete growth media plus G418.
Cell surface expression of PRLR on 293/hPRLR cells was assessed via FACS analysis. Briefly, 1×10^5 cells were incubated with 10 μg/ml of Control antibody I, or an isotype control for 30 min on ice in antibody dilution buffer. Following two washes with antibody dilution buffer, cells were incubated with 10 μg/ml of PE conjugated anti-human secondary antibodies for 30 min on ice. Following two additional washes, samples were run on a Hypercyt® cytometer and analyzed in ForeCyt™ (IntelliCyt, Albuquerque, N. Mex.). The mean fluorescence intensities (MFI) were expressed as fold change above isotype control levels (background). FACS binding confirmed that Control I selectively bound to 293/hPRLR expressing cells with MFIs that were 30 fold above background (isotype ctrl) levels and less than 2 fold binding on parental cells. […]

[4] = molecular target: T1, human PRLR on HEK293/hPRLR cells; assay: FACS cell surface binding
Method: as §2
(§3) Cell surface expression of PRLR on 293/hPRLR cells was assessed via FACS analysis. Briefly, 1×10^5 cells were incubated with 10 μg/ml of Control antibody I, or an isotype control for 30 min on ice in antibody dilution buffer. Following two washes with antibody dilution buffer, cells were incubated with 10 μg/ml of PE conjugated anti-human secondary antibodies for 30 min on ice. Following two additional washes, samples were run on a Hypercyt® cytometer and analyzed in ForeCyt™ (IntelliCyt, Albuquerque, N. Mex.). The mean fluorescence intensities (MFI) were expressed as fold change above isotype control levels (background). FACS binding confirmed that Control I selectively bound to 293/hPRLR expressing cells with MFIs that were 30 fold above background (isotype ctrl) levels and less than 2 fold binding on parental cells.
(§4) Next, the anti-PRLR antibodies were tested via FACS for selective binding to the engineered overexpressing PRLR HEK293 cell lines, as well as to non-expressing HEK293 cells and a native PRLR expressing cell line (T47D).

[5] = molecular target: T2, monkey PRLR on HEK293/mfPRLR cells; assay: FACS cell surface binding
Method: as §2, §3, §4

[6] = molecular target: T3, mouse PRLR on HEK293/mPRLR cells; assay: FACS cell surface binding
Method: as §2, §3, §4

[7] = molecular target: T4, native PRLR expressing T47D cells; assay: FACS cell surface binding
Method: as §3, §4

T6 sequence (P16471 with tags, fused parts or gaps): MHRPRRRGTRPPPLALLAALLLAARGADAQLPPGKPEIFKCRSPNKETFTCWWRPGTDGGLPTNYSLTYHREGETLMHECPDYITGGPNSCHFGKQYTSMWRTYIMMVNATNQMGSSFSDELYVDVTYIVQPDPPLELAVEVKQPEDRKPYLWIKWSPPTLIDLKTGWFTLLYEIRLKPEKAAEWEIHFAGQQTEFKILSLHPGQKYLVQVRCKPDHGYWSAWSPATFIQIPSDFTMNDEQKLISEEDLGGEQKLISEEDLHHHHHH
T5 sequence (P16471 with tags, fused parts or gaps): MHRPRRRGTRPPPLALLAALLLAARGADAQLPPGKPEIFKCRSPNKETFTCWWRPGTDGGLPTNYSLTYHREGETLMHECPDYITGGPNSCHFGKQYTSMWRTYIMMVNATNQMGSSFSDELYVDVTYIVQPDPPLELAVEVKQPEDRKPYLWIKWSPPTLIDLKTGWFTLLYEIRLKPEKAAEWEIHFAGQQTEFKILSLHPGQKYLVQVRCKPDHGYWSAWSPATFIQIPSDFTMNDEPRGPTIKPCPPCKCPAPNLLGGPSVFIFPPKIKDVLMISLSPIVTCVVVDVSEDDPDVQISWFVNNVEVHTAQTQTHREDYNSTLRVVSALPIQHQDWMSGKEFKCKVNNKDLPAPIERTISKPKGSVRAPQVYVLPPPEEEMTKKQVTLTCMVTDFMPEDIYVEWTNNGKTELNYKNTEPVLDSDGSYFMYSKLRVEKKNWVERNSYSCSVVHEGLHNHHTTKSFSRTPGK

kd ([1]; 25° C.) [s⁻¹]	kd ([1]; 37° C.) [s⁻¹]	ka ([2]; 25° C.) [M/s]	kd ([2]; 25° C.) [s⁻¹]	ka ([2]; 37° C.) [M/s]	kd ([2]; 37° C.) [s⁻¹]	ka ([3]; 25° C.) [M/s]	kd ([3]; 25° C.) [s⁻¹]	ka ([3]; 37° C.) [M/s]	kd ([3]; 37° C.) [s⁻¹]	FACS Cell Binding [4] [Fold Above Background]	FACS Cell Binding [5] [Fold Above Background]	FACS Cell Binding [6] [Fold Above Background]	FACS Cell Binding [7] [Fold Above Background]	Molecule	ka ([1]; 25° C.) [M/s]	ka ([1]; 37° C.) [M/s]	FACS Cell Binding (HEK293 parental cells) [Fold Above Background]
0.000341	0.0013	264000	8.77e-05	491000	0.000138	288000	0.000413	411000	0.00161	37	27	1	38	H1H6783P: fully human anti-PRLR antibody, human IgG1 Fc; HCVR/LCVR SEQ ID NOs 82/90 (antibody, V domains shown) VH: QVQLQQSGPGLVKPSQTLSLTCAISGDSVSSNTFAWNWIRQSPSRGLEWLGRTYYRSKWYIDYAESVKSRITITPDTSKNQFSLQLNSVTPEDTALYYCAGGYTYAPRGAFDIWGQGTMVTVSS VL: [sequence of about 100 residues omitted]TFGQGTKLEIK	189000	273000	1
0.000151	0.000359	680000	5.46e-05	1.22e+06	0.00011	761000	0.000144	1.08e+06	0.000336	32	27	2	34	H1H6807P: fully human anti-PRLR antibody, human IgG1 Fc; HCVR/LCVR SEQ ID NOs 258/266 (antibody, V domains shown) VH: QVQLVESGGGVVQPGRSLRLSCAASGFTFSDYNMHWVRQAPGKGLEWVAVIWYDGSNKHYADSVKGRFTISRDNSKNTLYLQMNSLRAEDTAVYYCARDGFTIFGMVLDYWGQGTLVTVSS VL: [sequence of about 100 residues omitted]PFTFGPGTKVDIK	437000	802000	2

— patent publication US10925971B2, “Methods of treating PRLR positive breast cancer” (Regeneron Pharmaceuticals, Inc., priority 2016, dated 2021)
